Measurements reported in patent US20250161476A1 (REGENERON PHARMACEUTICALS, INC., priority 2020, published 2025).

Assays:
[1] = tested on: obese GLP1R humanized mice; experiment: Blood glucose in diet-induced obese GLP1R humanized mice; assay type: in vivo, mouse; settings: single 25 mg/kg subcutaneous
Excerpt: (§1) To determine body weight and blood glucose lowering effects of three anti-GLP1R antibody-tethered-drug conjugates (ATDCs) in obese animals, mice homozygous for the expression of human GLP1R in place of mouse GLP1R (referred to as GLP1R humanized mice) were placed on high-fat diet (60% kcal % fat) for 6 months. Forty-four, 9-month-old male, GLP1R humanized mice were stratified into six groups of five to eight mice, based on their day 0 body weights. After the stratification, each group was subcutaneously administered with 25 mg/kg of COMP anti-GLP1R mAb1-LP4 (n=8), anti-GLP1R mAb3-LP11 (n=8), anti-GLP1R mAb4-LP11 (n=5), control anti-GLP1R mAb (n=7), isotype control mAb ATDC (n=8) or reference compound (n=8) on day 0.
(§2) The control anti-GLP1R mAb is antibody 5A10 described in US Publication No. US20060275288A1, which is incorporated herein by reference in its entirety. […] COMP anti-GLP1R mAb1-LP4 comprises the same control anti-GLP1R mAb with a N-terminal heavy chain Q-tag.
(§3) On days three and seven post administration and weekly from day fourteen to day fifty-six, body weights of the animals were recorded, and their blood glucose levels were measured with a handheld glucometer. Mean±SEM of percent changes in body weight from day 0 at each time point was calculated for each group and are shown in Table 14. Statistical analyses were performed by two-way ANOVA followed by Bonferroni post-hoc tests, comparing the control antibody group to the other five groups.

[2] = tested on: obese GLP1R humanized mice; experiment: Body weight in diet-induced obese GLP1R humanized mice; assay type: in vivo, mouse; settings: single 25 mg/kg subcutaneous
Excerpt: as §1, §2, §3

| Molecule | blood glucose level, Mean ([1]; day 0) | blood glucose level, Mean ([1]; day 3) | blood glucose level, Mean ([1]; day 7) | blood glucose level, Mean ([1]; day 14) | blood glucose level, Mean ([1]; day 20) | blood glucose level, Mean ([1]; day 28) | blood glucose level, Mean ([1]; day 35) | blood glucose level, Mean ([1]; day 42) | blood glucose level, Mean ([1]; day 49) | blood glucose level, Mean ([1]; day 56) | percent body weight change from day 0, Mean ([2]; day 0) [%] | percent body weight change from day 0, Mean ([2]; day 3) [%] | percent body weight change from day 0, Mean ([2]; day 7) | percent body weight change from day 0, Mean ([2]; day 14) | percent body weight change from day 0, Mean ([2]; day 20) | percent body weight change from day 0, Mean ([2]; day 28) | percent body weight change from day 0, Mean ([2]; day 35) | percent body weight change from day 0, Mean ([2]; day 42) | percent body weight change from day 0, Mean ([2]; day 49) | percent body weight change from day 0, Mean ([2]; day 56) |
| --- | --- | --- | --- | --- | --- | --- | --- | --- | --- | --- | --- | --- | --- | --- | --- | --- | --- | --- | --- | --- |
| Anti-GLP1R mAb4-LP11 (conjugate) heavy: QVQLVESGGGVVQPARSLRLSCAASGFAFSRSAMHWVRQAPGKGLEWVAVISYDGSNKYYTDSVKGRFTISRDNSKNTLYLQMNTLRAEDTALYYCAKMYTTMDSFDYWGQGTLVTVSSASTKGPSVFPLAPCSRSTSESTAALGCLVKDYFPEPVTVSWNSGALTSGVHTFPAVLQSSGLYSLSSVVTVPSSSLGTKTYTCNVDHKPSNTKVDKRV[letters of human IgG4 Fc with S228P (EU numbers) not shown] light: LLQGSGDIQLTQSPSFLSASVGDRVTITCWASQGISSYLAWYQQKPGKAPKLLIYAASTLQSGVPSRFSGSGSGTEFTLTISSLQPEDFALYYCQQLNSYPRTFGQGTKVEIKRTVAAPSVFIFPPSDEQLKSGTASVVCLLNNFYPREAKVQWKVDNALQSGNSQESVTEQDSKDSTYSLSSTLTLSKADYEKHKVYACEVTHQGLSSPVTKSFNRGEC | 221 | 143*** | 155* | 178 | 205 | 188 | 222 | 224 | 226 | 229 | 0 | −8.3 | −11.3* % | −13.2** % | −10.9* % | −8.9* % | −7.2% | −4.3% | −3.1% | −2.6% |
| Anti-GLP1R mAb3-LP11 (conjugate) heavy: [letters of about 100 residues not shown]GLIAPRPMGFDYWGQGTLVTVSSASTKGPSVFPLAPCSRSTSESTAALGCLVKDYFPEPVTVSWNSGALTSGVHTFPAVLQSSGLYSLSSVVTVPSSSLGTKTYTCNVDHKPSNTKVDKRV[letters of human IgG4 Fc with S228P (EU numbers) not shown] light: LLQGSGDIQMTQSPSSVSASVGDRVTITCRASQGINSWLAWYQQKPGKAPKLLIYAASSLQSGVPSRFSGSGSGTDFTLTISSLQPEDFATYYCHQADSFPYTFGQGTKLEIKRTVAAPSVFIFPPSDEQLKSGTASVVCLLNNFYPREAKVQWKVDNALQSGNSQESVTEQDSKDSTYSLSSTLTLSKADYEKHKVYACEVTHQGLSSPVTKSFNRGEC | 209 | 157** | 154* | 162 | 184 | 190 | 200 | 196 | 214 | 204 | 0 | −7.8 | −11.3** % | −15.9**** % | −15.4**** % | −13.0**** % | −13.0**** % | −12.6**** % | −12.1*** % | −13.2**** % |

Marks after values point to notes of the source that are not given here.
